# Measured values from PubChem BioAssay AID1347165 (National Center for Advancing Translational Sciences (NCATS), 2019).
# The campaign covered roughly 220,000 compounds. About 5,700 (2.6%) were called active. Inconclusive means that the source gave no clear call. Such entries were picked first, then a sample of the others. The call rests on the fitted dose curve; in most records, active means well fitted inhibition curve with a large enough effect; inconclusive means small, poorly fitted or top-dose-only effect; inactive means no such curve, though single readings can be large or run the other way. Where the call is inconclusive, the potency comes from a doubtful curve fit.
# Target: Lysine-specific demethylase 5B (Homo sapiens) (UniProt Q9UGL1)
# Sequence of UniProt Q9UGL1 (Q9UGL1 whole entry, looked up): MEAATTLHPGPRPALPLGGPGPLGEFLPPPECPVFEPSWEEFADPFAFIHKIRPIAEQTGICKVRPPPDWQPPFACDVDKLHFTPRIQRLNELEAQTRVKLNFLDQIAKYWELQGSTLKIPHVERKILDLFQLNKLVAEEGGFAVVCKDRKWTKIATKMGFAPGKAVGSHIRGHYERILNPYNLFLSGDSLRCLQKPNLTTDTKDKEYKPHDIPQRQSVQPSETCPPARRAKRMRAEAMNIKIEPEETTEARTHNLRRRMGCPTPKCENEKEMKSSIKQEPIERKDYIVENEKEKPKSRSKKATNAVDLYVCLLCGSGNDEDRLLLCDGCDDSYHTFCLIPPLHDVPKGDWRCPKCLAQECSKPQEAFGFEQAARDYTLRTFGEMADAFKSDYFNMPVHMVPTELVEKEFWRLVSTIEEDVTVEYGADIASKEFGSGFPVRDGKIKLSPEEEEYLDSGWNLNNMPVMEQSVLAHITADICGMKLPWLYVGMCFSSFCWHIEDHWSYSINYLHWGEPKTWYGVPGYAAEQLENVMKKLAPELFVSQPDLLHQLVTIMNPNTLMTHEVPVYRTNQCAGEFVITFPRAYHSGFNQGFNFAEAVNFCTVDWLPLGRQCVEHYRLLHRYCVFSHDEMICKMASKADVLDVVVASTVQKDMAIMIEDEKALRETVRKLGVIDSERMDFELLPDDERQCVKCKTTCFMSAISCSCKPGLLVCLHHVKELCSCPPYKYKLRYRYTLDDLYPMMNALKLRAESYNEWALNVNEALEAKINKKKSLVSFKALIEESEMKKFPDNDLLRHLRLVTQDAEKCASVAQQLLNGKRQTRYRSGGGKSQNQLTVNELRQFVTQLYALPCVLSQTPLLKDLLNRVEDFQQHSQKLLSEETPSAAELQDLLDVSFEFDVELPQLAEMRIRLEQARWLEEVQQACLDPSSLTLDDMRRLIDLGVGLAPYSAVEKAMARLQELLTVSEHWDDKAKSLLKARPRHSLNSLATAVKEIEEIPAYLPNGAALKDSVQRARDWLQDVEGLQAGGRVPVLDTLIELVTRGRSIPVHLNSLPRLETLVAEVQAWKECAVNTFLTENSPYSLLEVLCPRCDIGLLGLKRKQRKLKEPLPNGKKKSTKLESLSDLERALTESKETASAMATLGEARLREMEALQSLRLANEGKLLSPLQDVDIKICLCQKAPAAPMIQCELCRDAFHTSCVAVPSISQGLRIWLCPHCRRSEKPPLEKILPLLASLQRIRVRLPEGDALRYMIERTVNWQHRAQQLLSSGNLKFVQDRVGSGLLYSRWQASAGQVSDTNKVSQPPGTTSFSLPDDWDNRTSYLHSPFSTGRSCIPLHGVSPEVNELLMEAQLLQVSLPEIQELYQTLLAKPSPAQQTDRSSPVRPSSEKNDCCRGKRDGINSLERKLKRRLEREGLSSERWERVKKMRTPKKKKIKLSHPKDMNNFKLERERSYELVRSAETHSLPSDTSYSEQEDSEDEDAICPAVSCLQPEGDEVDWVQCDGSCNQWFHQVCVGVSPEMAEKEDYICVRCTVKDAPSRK
# Assay: Primary screen for KDM5B Histone Demethylases FDH-coupled qHTS; further: nearly all actives have a fitted effect of over 70% in size; on activity change, negative = inhibition: 0% is about no effect
# Settings: FDH-coupled NADH fluorescence (FDH is formaldehyde dehydrogenase); activity change, negative = inhibition: at 57.7 µM (top of the series) unless noted
# Summary of the method: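 Here, H3K4me3 peptide (12.5 µM in substrate mix) is demethylated by KDM5BΔAP, 200 nM final, after 10 min compound exposure. Formaldehyde product is coupled through FDH (0.25 U/mL in mix) to NADH fluorescence; 30-min ΔRFU feeds dose-response curves.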
# Potency means the concentration at half of the fitted maximal effect; tags describe the fitted curve by direction and shape.
Compound,Potency,"activity change, negative = inhibition"
O=C(NCc1ccccn1)c1ccccc1NS(=O)(=O)c1ccc2[nH]c(=O)[nH]c2c1,"inconclusive: 31.6 µM [inhibitor, single point]",
COc1ccc(-c2cc(C(=O)NCc3ccco3)c3ccccc3n2)cc1OC,"inconclusive: 25.1 µM [inhibitor, partial curve, poor fit]",
CCOc1ccc(OC(=O)c2c(-c3ccccc3Cl)noc2C)cc1,,inactive: -11.6%
CCN(C(=O)C1CCCN(c2ncnc3c2nc2n3CCCCC2)C1)c1cccc(C)c1 (centres undefined),"inconclusive: 28.2 µM [inhibitor, partial curve, poor fit]",
CCCC(=O)N1CCN(c2oc(/C=C/c3cccc(OC)c3)nc2C#N)CC1,"inconclusive: 5.01 µM [inhibitor, full curve, poor fit]",
CCN(CC)C(=O)C(=O)c1c(-c2ccccc2)n(C)c2ccccc12,,inactive: -20%
Cc1nn(C(=O)CCC(=O)N2CCCC(c3nc(C4CCOCC4)no3)C2)c2ccccc12 (centres undefined),"inconclusive: 17.8 µM [inhibitor, partial curve, poor fit]",
c1cc(CNCCN2CCCC2)cs1,,inactive: -12.5%
O=c1c2nc(-c3cccc(O)c3)ccc2ncn1C1CC1,,inactive: -20.4% [at 115 µM]
C=CCNC(=O)NC(=O)CN(C)Cc1cc(C)on1,"inconclusive: 31.6 µM [inhibitor, partial curve, poor fit]",
CN(CC(=O)Nc1c(Cl)cccc1Cl)CC(=O)N1CCC(Cc2ccccc2)CC1,,inactive: 18.7%
Cc1ccccc1S(=O)(=O)N1CCC2(CC1)CC1C(=O)NCCN1C2 (centres undefined),"inconclusive: 15.8 µM [inhibitor, partial curve, poor fit]",
CCn1cc(C(=O)NCCc2ccc(C)cc2)c(=O)c2cc(S(=O)(=O)N3CCc4ccccc4C3)ccc21,"inconclusive: 7.08 µM [inhibitor, full curve, poor fit]",
CCN(CC)c1ccc2cc(-c3nc(-c4cc5ccccc5oc4=O)cs3)c(=O)oc2c1,"inconclusive: 28.2 µM [inhibitor, partial curve, poor fit]",
CCNCc1ccc(-c2ccc(C(=O)OC)cc2)o1,"inconclusive: 28.2 µM [inhibitor, partial curve, poor fit]",
O=C(Nc1c(-c2ccccc2)nc2ccccn12)c1ccccc1F,"inconclusive: 1 µM [inhibitor, partial curve, poor fit]",
COCC(=O)N1CC[C@]2(O)CCN(C(=O)c3ccccc3N(C)C)C[C@@H]2C1,"inconclusive: 31.6 µM [inhibitor, single point]",
Cc1nc(C#N)c(N2CCN(C(=O)CN(C)C(C)C(C)(C)C)CC2)o1 (centres undefined),,inactive: -3.74%
COc1ccc(-c2nc3c(C(C)(C)C)cc(C(C)(C)C)c(O)c3o2)cc1OC,"inconclusive: 39.8 µM [inhibitor, single point]",
O=C(CC1C(=O)NCCN1CC(c1ccccc1)c1ccccc1)NCc1ccoc1 (centres undefined),"inconclusive: 15.8 µM [inhibitor, partial curve, poor fit]",
CNC(=O)c1cc(=O)n(CC(=O)Nc2cccc(C#N)c2)c2ccccc12,,inactive: -16.6%
CC(C)c1noc(CCC(=O)Nc2ccccn2)n1,,inactive: -9.7%
CC(C)(C)c1cc(C(=O)N2CCCC2)nn2cccc12,,inactive: -19.3% [at 149 µM]

Compound,Potency,"activity change, negative = inhibition"
O=C1CC(c2ccc(F)cc2)c2c(c3ccccc3[nH]c2=O)O1 (centres undefined),"inconclusive: 25.1 µM [inhibitor, partial curve, poor fit]",
CCOc1ccccc1NC(=O)Nc1cc2c(cc1N1CCCCC1)n(CC)c(=O)n2CC,"inconclusive: 28.2 µM [inhibitor, partial curve, poor fit]",
Cc1ccc(CNC(=O)c2ccccn2)s1,,inactive: 21.9%
Cc1ncc(C(=O)NCc2ccc3[nH]c(-c4ccccc4F)c(C)c3c2)c(C)n1,active: 20 µM,
O=C(CCc1c(-c2ccc(F)cc2)[nH]c2ccc(F)cc12)N1CCC1,"inconclusive: 10 µM [inhibitor, partial curve, poor fit]",
Cc1ccccc1C1=CCN(c2ncc(NC(=O)c3ccc(Cl)cc3)cc2C(=O)O)CC1,,inactive: 16.7%
COc1ccc(-n2c(C)c(C(=O)O)c3cc(OC)ccc32)cc1,"inconclusive: 17.8 µM [inhibitor, partial curve, poor fit]",
COc1cccc(CNC(=O)c2ccc(C)cc2)c1,,inactive: 11.1%
Cc1ccccc1C(OCC(O)CN1CCN(CCO)CC1)c1ccccc1 (centres undefined),"inconclusive: 17.8 µM [inhibitor, partial curve, poor fit]",
CCCOc1cc(C)ccc1S(=O)(=O)Nc1cccnc1,,inactive: 4.92%
CC(C)CCNC(=O)c1cccc2ncccc12,,inactive: 1.79%
CCC1(C)CC(C(N)=S)CCO1 (centres undefined),"inconclusive: 10 µM [inhibitor, partial curve, poor fit]",
COCCN[C@@H]1C[C@@H]2c3[nH]c4ccccc4c3C[C@@H](C(=O)OC)N2[C@H](c2ccc(Cl)c(F)c2)C1,"inconclusive: 12.6 µM [inhibitor, partial curve]",
COc1ccccc1N1CCN(C(=O)CCn2nc(C)c(S(=O)(=O)N3CCCC3)c2C)CC1,,inactive: -1.02%
CC(NC(=O)c1ccc2c(c1)sc1nc(-c3ccc(F)cc3)cn12)c1ccccc1 (centres undefined),,inactive: -21.9%
Cc1sc2cc(C(=O)NCc3ccncc3)[nH]c2c1CN1CCCCC1,,inactive: -0.252%
O=C(CN1CCN(Cc2nc3ccccc3o2)CC1)NC1CC1,,inactive: 6.95%
Cc1ccc(NS(=O)(=O)c2ccc3c(c2)[C@H]2C=CC[C@H]2[C@@H](c2ccc(F)cc2)N3)cc1C,"inconclusive: 4.47 µM [inhibitor, partial curve, poor fit]",
Cn1nnnc1C1CCCN(C(=O)C2CC2)C1 (centres undefined),,inactive: -24.8%
COC(=O)c1ccc(CN(C)C(=O)C(C)(C)C)cc1,,inactive: -1.05%
c1ccc(C2=Nc3ccccc3N=C(c3ccccc3)c3ccccc32)cc1,,inactive: 5.95%
C=CCNS(=O)(=O)c1ccc(C(=O)O)cc1,,inactive: 16.6%
CCc1nc2c(c(-c3ccc(OC)cc3)n1)CN(C(=O)c1ccccc1F)CC2,"inconclusive: 56.2 µM [inhibitor, partial curve, poor fit]",

Compound,Potency,"activity change, negative = inhibition"
O=C(O)CC[C@@H]1CN(c2cnccn2)CC[C@@H]1N1CCOCC1,"inconclusive: 22.4 µM [inhibitor, single point]",
COCc1noc([C@@H]2CN(Cc3cn(C)c4ccc(OC)cc34)C[C@H]2C(N)=O)n1,"inconclusive: 17.8 µM [inhibitor, partial curve, poor fit]",
COc1ccccc1C(=O)N1CCCN(CCc2ccccc2)c2ccccc21,"inconclusive: 22.4 µM [inhibitor, partial curve, poor fit]",
COc1cccc2cc(C(=O)Nc3ccccc3Oc3ccccc3)c(=O)oc12,"inconclusive: 35.5 µM [inhibitor, single point]",
COCC(=O)NC[C@H]1O[C@@H](CO)[C@@H](O)[C@H]1N(C)Cc1ccccc1,"inconclusive: 28.2 µM [inhibitor, single point]",
CC(C)C(=O)N1CCC(Oc2cnc3c(ccn3-c3cncnc3)c2)CC1,,inactive: -26.9% [at 86.2 µM]
Cn1cc(CNCC2(COc3cccnc3)C[C@@H](O)[C@@H](O)C2)c2ccccc21 (some centres undefined),"inconclusive: 15.8 µM [inhibitor, partial curve, poor fit]",
CC(C)(C)c1ccc(-c2nc(C#N)c(NCc3ccccc3)o2)cc1,"inconclusive: 35.5 µM [inhibitor, partial curve, poor fit]",
O=C(c1nccc2ccccc12)N1CCC(c2noc(C3CC3)n2)C1 (centres undefined),,inactive: 2.72%
CCOC(=O)c1c(NC(=O)C(CC)Oc2ccccc2)sc(C)c1C (centres undefined),"inconclusive: 20 µM [inhibitor, single point]",
COc1ccc(CC(=O)NCCc2csc(-c3ccc(C(F)(F)F)cc3)n2)cc1,"inconclusive: 1.41 µM [inhibitor, partial curve, poor fit]",
COc1ccc(-c2nc(CC(=O)Nc3cccc(S(=O)(=O)NC4=NCCC4)c3)cs2)cc1,"inconclusive: 17.8 µM [inhibitor, partial curve, poor fit]",
COCc1nc2nccc(-c3ccc(OC)cc3F)n2n1,active: 28.2 µM,
O=C(O)c1cc(-c2cccs2)nc2ccccc12,"inconclusive: 22.4 µM [inhibitor, partial curve, poor fit]",
O[C@@H]1CC(CNC2CCC2)(COc2cnccn2)C[C@@H]1O (some centres undefined),"inconclusive: 17.8 µM [inhibitor, partial curve]",
COc1ncccc1-c1cc2[nH]ccc2c(C(=O)NCc2c(C)cc(C)[nH]c2=O)n1,,inactive: -4920% [at 86.2 µM]
COC(=O)N1CCCc2cc(S(=O)(=O)N3CCN(c4ccccc4)CC3)ccc21,"inconclusive: 28.2 µM [inhibitor, single point]",
Cc1ccc(C(=O)/C=C/c2ccc3ccccc3c2)o1,"inconclusive: 25.1 µM [inhibitor, partial curve, poor fit]",
CCOc1ccc(OCC)c(NC(=O)CCc2nc3cccnc3n2Cc2cccs2)c1,"inconclusive: 28.2 µM [inhibitor, single point]",
COc1ccc(-c2nc(C)c(CCNC(=O)c3c(F)cccc3F)s2)cc1,"inconclusive: 6.31 µM [inhibitor, partial curve, poor fit]",
CCCNc1ncc(CN2CCC(Cc3nn(C)c(=O)n3CC)CC2)cn1,"inconclusive: 28.2 µM [inhibitor, single point]",
CNC(=O)Nc1ccc(C)n(CC(=O)NCc2cccc(C)c2)c1=O,"inconclusive: 17.8 µM [inhibitor, partial curve, poor fit]",
CC1Cc2cc(/C(O)=C3/C(=O)C(=O)N(CCN4CCOCC4)C3c3ccc([N+](=O)[O-])cc3)ccc2O1 (centres undefined),"inconclusive: 22.4 µM [inhibitor, partial curve, poor fit]",
